Experimental data as given in PubChem BioAssay AID1865 (National Center for Advancing Translational Sciences (NCATS), 2009).
Among all 280,000 compounds or so, about 540 (0.19%) were called active. Inconclusive means that the source gave no clear call. Such entries were picked first, then a sample of the others. Calls come from the whole dose curve; as a rule, active = well fitted activation curve with a large enough effect; inconclusive = small, poorly fitted or top-dose-only effect; inactive = flat fitted curve, though single readings scatter. Where the call is inconclusive, the potency comes from a doubtful curve fit. Residues, ends and D or L forms follow the SMILES beside them. *: point of attachment. Cbz = O=C(OCc1ccccc1)*

Assay: Quantitative High-Throughput Screen for Regulators of Epigenetic Control; note: nearly all actives have a fitted effect of over 60% in size
Details: murine LDR cells, GFP reporter derepression, 30 h; series mostly up to 53.9 µM
In short: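 GFP-positive cell count by laser-scanning cytometry (objects 20–120 um) after 30 h, 37 C compound exposure of murine LDR cells; reporter is CMV-GFP integrated at a silenced locus, inducible by HDAC or DNMT inhibitors.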
Potency is the fitted concentration of half-maximal effect; tags give direction and shape of the fitted curve.

Structure (SMILES)	Potency
Cc1c(F)cccc1NS(=O)(=O)c1ccc2c(c1)NC(=O)CO2	inconclusive: 35.5 µM [activator, single point]
COc1cc(NC(=O)c2cc(-c3ccco3)on2)c(OC)cc1Cl	inactive
COCCN(C(=S)Nc1cc(C)cc(C)c1)C(C)c1cccs1 (centres undefined)	inactive
Cc1cc(C)c(S(=O)(=O)ON2C(=O)c3ccccc3C2=O)cc1C	inconclusive: 28.2 µM [activator, single point]
CCN(CC)S(=O)(=O)c1ccc(OC)c(NC(=O)CSc2cc(C)ccc2C)c1	inconclusive: 31.6 µM [activator, single point]
O=C1CCC2S/C(=C/Nc3ccc(C(F)(F)F)cc3)C(=O)N12 (centres undefined)	inactive
COc1ccc(Cl)cc1NC(=O)c1c(NCc2cccnc2)sc2c1CCCC2	inconclusive: 3.98 µM [activator, single point]
O=C(NC(Cc1ccccc1)C(=O)O)/C(=C\c1ccco1)NC(=O)c1ccccc1 (centres undefined)	inactive
COc1ccc(OCC(O)CNCc2ccco2)cc1 (centres undefined)	inconclusive: 4.47 µM [activator, full curve]
N#CC(C(=O)NC1CCCCC1)=C1CCCCCC1	inactive
CC(C)C[C@@H](C=O)NC(=O)[C@H](CC(C)C)NC(=O)[C@H](CC(C)C)NC(=O)OCc1ccccc1 (Cbz-Leu-Leu-Leu-aldehyde)	active: 1.26 µM
Cc1cc(C)c2c(NC(=O)c3ccccc3Cl)c(C(=O)Nc3ccc(C)c(C)c3)sc2n1	inconclusive: 35.5 µM [activator, single point]
Oc1ccccc1-c1nc(NCc2ccco2)c2ccccc2n1	inconclusive: 35.5 µM [activator, single point]
O=C(NC(=S)Nc1ccccc1N1CCOCC1)c1ccc(-c2cccc(Cl)c2)o1	inactive
COc1ccc(-c2c(C#N)c(N)nc3sc(C(=O)c4ccc(C)cc4)c(N)c23)cc1	inconclusive: 31.6 µM [activator, single point]
Cc1ccc2c(=O)c(C(=O)c3cccc(Cl)c3)cn(CC(=O)NCc3ccccc3)c2n1	inconclusive: 31.6 µM [activator, single point]
O=C(Nc1ccc(N2CCOCC2)c(Cl)c1)c1ccc([N+](=O)[O-])o1	inactive
COc1ccc(C2c3ccc(O)cc3Oc3ncn4nc(-c5ccncc5)nc4c32)cc1OC (centres undefined)	inconclusive: 25.1 µM [activator, single point]
Cc1[nH]c2ccccc2c1C1(O)C(=O)Nc2ccc(Cl)cc21 (centres undefined)	inconclusive: 5.62 µM [activator, single point]
